# PubChem BioAssay AID1347073 (National Center for Advancing Translational Sciences (NCATS), 2019)
# In all, about 45,000 compounds went through this assay and about 200 (0.44%) were called active. Roughly 7% stayed inconclusive and do not appear here. Calls follow the shape of the dose curve; as a rule, active = well fitted activation curve with a large enough effect; inconclusive = small, poorly fitted or top-dose-only effect; inactive = no such curve, though single readings can be large or run the other way. The list shows a part of the results.
# Assay: qHTS of TDP-43 Inhibitors: NCGC Sytravon Library Screen; also: 0% is about no effect; nearly all actives have a fitted effect of over 55% in size
# Conditions: yeast TDP-43 toxicity rescue, BacTiter-Glo growth, 24 h; series mostly up to 46.1 µM; growth rescue (activation): at the top concentration
# Summary of the method: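 TDP-43-expressing yeast, pregrown in raffinose, seeded at OD600 0.02 in galactose medium with compound for 24 hr at 30 deg C. Growth read by BacTiter-Glo luminescence, so rescue of toxicity appears as activation.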
row,SMILES,growth rescue (activation)
1,CC(=O)Nc1cccc(-c2ccnc3c2CC(C)(C(=O)Nc2cccc(C(C)=O)c2)O3)c1 (stereo not drawn),inactive: 14.7%
2,O=C(NNC(=S)Nc1ccc(F)cc1)[C@H]1C[C@@H]1c1ccccc1,inactive: 19.1%
3,O=C(C1=NN[C@@H]2C(=O)N(c3cccc(F)c3)C(=O)[C@H]12)C(c1ccccc1)c1ccccc1,inactive: 2.91%
4,S=c1nc(C2COc3ccccc3O2)[nH][nH]1 (stereo not drawn),inactive: 12.7%
5,CC(C)CC1NC(=O)N(CC(=O)Nc2ccc(OC(F)F)cc2)C1=O (stereo not drawn),inactive: -15.9%
6,COc1ccc2c(c1)-c1nc(NC(=O)c3cc(Cl)ccc3OC)sc1CC2,inactive: 4.49%
7,Cc1ccc(S(=O)(=O)N2CCCCC2)cc1C(=O)Nc1cccnc1,inactive: 6.37%
8,O=C(Nc1ccc(N2CCOCC2)cc1)c1ccc([N+](=O)[O-])cc1,inactive: 6.47%
9,OC[C@@H]1CN(Cc2cccnc2)C[C@H](n2cnc3c(N4CCOCC4)ncnc32)O1,inactive: -10.7%
10,OCCNC(=S)NCCc1ccccc1,inactive: -4.78%
11,CC1(C)C2CCC1(CS(=O)(=O)N1CCCC1C(=O)O)C(=O)C2 (stereo not drawn),inactive: 8.96%
12,CCCNC(=O)C1(C)CCN(C(=O)c2ccc(F)c(Cl)c2)C1 (stereo not drawn),inactive: -4.83%
13,Cc1ccc(Oc2nc3ccccn3c(=O)c2/C=C(\C#N)C(=O)Nc2c(C)n(C)n(-c3ccccc3)c2=O)cc1,inactive: 4.58%
14,O=C(N/N=C/c1ccc(O)cc1O)C(=O)N/N=C/c1ccc(O)cc1O,inactive: -4.88%
15,Cc1ccc(-c2nn(-c3ccccc3)cc2/C=N/O)cc1,inactive: 19.3%
16,O=C(COC(=O)CCCNC(=O)c1ccc(Cl)cc1)Nc1cc(Cl)c(Cl)cc1Cl,inactive: 7.17%
17,O=C(CSc1n[nH]c(=O)[nH]c1=O)c1ccc(Cl)cc1Cl,inactive: -2.28%
18,O=C(OCCN=C1NS(=O)(=O)c2ccccc21)c1cccc([N+](=O)[O-])c1,inactive: 12.4%
19,O=C(O)COc1ccccc1C=NNc1ccc([N+](=O)[O-])cc1S(=O)(=O)Nc1ccc(Cl)cc1,inactive: 16.7%
20,CCSc1nnc(-c2cc(Br)ccc2N)c(=O)[nH]1,inactive: 8.96%
21,CCc1ccccc1NC(=O)C1CCN(C(=O)c2ccc([N+](=O)[O-])cc2)CC1,inactive: 5.26%
22,COc1ccc(NC(=O)CCC(=O)Nc2ccc3nc(N4CCOCC4)cc(C)c3c2)c(OC)c1,inactive: -1.01%
23,O=S(=O)(/N=C(/Nc1ccccn1)c1ccc(Cl)cc1)c1ccc(Cl)cc1,inactive: 25.2%
24,O=C(c1cc(-c2ccc(Br)cc2)on1)N1CCCCCC1,inactive: 7.63%
25,CCOC(=O)C1(Cc2cccc(OC)c2)CCN(Cc2cccn2-c2nccs2)CC1,inactive: -13.7%
26,CC(Oc1ccccc1)C(=O)NC1C(=O)N2C1SC(C)(C)C2C(=O)O (stereo not drawn),inactive: -16.2%
27,O=C(Nc1nc2ccccc2s1)c1ccc2c(c1)OCO2,inactive: -6.85%

row,SMILES,growth rescue (activation)
1,O=C(Nc1c(-c2ccccc2)nc2ccc(Cl)cn12)c1cccs1,inactive: -1.5%
2,O=C(COC(=O)CCCSc1nc2ccccc2[nH]1)Nc1ccc(Cl)cc1,inactive: -5.04%
3,CCOC(=O)C1CCCN(c2nc3ccccc3nc2C(C#N)C(=O)OCC)C1 (stereo not drawn),inactive: -1.26%
4,Cc1ccc(C(=O)NCCCNC(=O)COc2ccc(Cl)cc2)cn1,inactive: 2.8%
5,O=C(NCc1ccccc1)C1(c2cccc(F)c2)CCCC1,inactive: 24.1%
6,Cc1c(NC(=O)c2ccc(-c3ccc([N+](=O)[O-])cc3Cl)o2)c(=O)n(-c2ccccc2)n1C,inactive: 0.857%
7,COc1ccc(C(NC(=O)C2CCN(CCOc3ccc(Cl)cc3Cl)CC2)c2cccs2)cc1 (stereo not drawn),inactive: -0.919%
8,CCOC(=O)/C(C#N)=C/C=C1/C=CC=CN1C,inactive: -2.81%
9,N#C/C(=C\N1CCOCC1)C(N)=O,inactive: -4.29%
10,CCNS(=O)(=O)c1ccc(NC(=O)c2c(-c3ccccc3)noc2C)cc1,inactive: 4.34%
11,Nc1cccc(-n2nnnc2CN2CCOCC2)c1,inactive: -4.42%
12,COC1CCN(C(=O)CC2C(=O)NCCN2CC2CCCCC2)CC1 (stereo not drawn),inactive: 1.82%
13,CCOC(=O)C1=C(CS(=O)(=O)c2ccccc2)NC(=O)NC1c1cccc(OC)c1 (stereo not drawn),inactive: -12.4%
14,Cc1ccc(OCC(=O)Nc2ccc(S(=O)(=O)N3CCCC3)cc2)cc1,inactive: 15.7%
15,CC(C)Nc1ncnc2c1ncn2[C@H]1CN(Cc2ccc(F)cc2)C[C@@H](CO)O1,inactive: 10.1%
16,Cc1nn(-c2ccccc2)c2c1C(c1cccc([N+](=O)[O-])c1)N(c1ccccc1)C(=O)N2 (stereo not drawn),inactive: -1.22%
17,CNc1ccc(-c2cccc(C(=O)N3CCOCC3)c2)cn1,inactive: 3.76%
18,CC(=O)N1Cc2ccccc2CC1C(=O)NCc1ccccc1F (stereo not drawn),inactive: 0.407%
19,CCOC(=O)c1sc(NC(=O)c2ccc(=O)[nH]c2)nc1C,inactive: -2.21%
20,CN1C=CC=C/C1=C1\SC(=S)N(c2ccccc2)C1=O,inactive: 7.34%
21,O=C(/C=C/c1ccc(Cl)cc1)Nc1ccccc1N1CCOCC1,inactive: 16.4%
22,CCNc1ccc(S(=O)(=O)N(C)C)cc1NCC(=O)Nc1ccccc1Cl,inactive: -19%
23,COC(=O)c1cc(COC(=O)COc2ccc(C)c(C)c2)oc1C,inactive: -5.75%
24,CCOc1ccc(N2C(=O)S/C(=C\c3cccn3C)C2=O)cc1,inactive: 14%
25,CC(C)NC(=O)C(c1ccc(F)cc1)N(C(=O)CCC(=O)Nc1ccccn1)c1cccc(F)c1 (stereo not drawn),inactive: -10.4%
26,COc1cccc(NC(=O)Cc2nnc(SCC(=O)NC3CCCCC3)n2C)c1,inactive: -58.6%
